The whole screen tested about 220,000 compounds, of which about 5,700 (2.6%) were called active. This list was built around the results that the source calls inconclusive (neither active nor inactive); the mix of calls is not that of the screen. Calls come from the whole dose curve; as a rule, active = well fitted inhibition curve with a large enough effect; inconclusive = small, poorly fitted or top-dose-only effect; inactive = no such curve, though single readings can be large or run the other way. Potencies beside an inconclusive call are fits to weak or partial responses and may not hold up.
molecular target: Lysine-specific demethylase 5B (Homo sapiens) (UniProt Q9UGL1); assay: Primary screen for KDM5B Histone Demethylases FDH-coupled qHTS; details: FDH-coupled NADH fluorescence (FDH is formaldehyde dehydrogenase); series mostly up to 57.7 µM; note: nearly all actives have a fitted effect of over 70% in size
Procedure, shortened: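 Compound dilutions met 200 nM (final) KDM5BΔAP for 10 min at room temperature before substrate addition. The substrate mix held 12.5 µM H3K4me3 with cofactors 25 µM α-ketoglutarate and 50 µM Fe²⁺. NADH signal gain over 30 min defined activity.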
Potency is the fitted concentration of half-maximal effect; tags give direction and shape of the fitted curve.

Sequence of UniProt Q9UGL1 (Q9UGL1 whole entry, looked up): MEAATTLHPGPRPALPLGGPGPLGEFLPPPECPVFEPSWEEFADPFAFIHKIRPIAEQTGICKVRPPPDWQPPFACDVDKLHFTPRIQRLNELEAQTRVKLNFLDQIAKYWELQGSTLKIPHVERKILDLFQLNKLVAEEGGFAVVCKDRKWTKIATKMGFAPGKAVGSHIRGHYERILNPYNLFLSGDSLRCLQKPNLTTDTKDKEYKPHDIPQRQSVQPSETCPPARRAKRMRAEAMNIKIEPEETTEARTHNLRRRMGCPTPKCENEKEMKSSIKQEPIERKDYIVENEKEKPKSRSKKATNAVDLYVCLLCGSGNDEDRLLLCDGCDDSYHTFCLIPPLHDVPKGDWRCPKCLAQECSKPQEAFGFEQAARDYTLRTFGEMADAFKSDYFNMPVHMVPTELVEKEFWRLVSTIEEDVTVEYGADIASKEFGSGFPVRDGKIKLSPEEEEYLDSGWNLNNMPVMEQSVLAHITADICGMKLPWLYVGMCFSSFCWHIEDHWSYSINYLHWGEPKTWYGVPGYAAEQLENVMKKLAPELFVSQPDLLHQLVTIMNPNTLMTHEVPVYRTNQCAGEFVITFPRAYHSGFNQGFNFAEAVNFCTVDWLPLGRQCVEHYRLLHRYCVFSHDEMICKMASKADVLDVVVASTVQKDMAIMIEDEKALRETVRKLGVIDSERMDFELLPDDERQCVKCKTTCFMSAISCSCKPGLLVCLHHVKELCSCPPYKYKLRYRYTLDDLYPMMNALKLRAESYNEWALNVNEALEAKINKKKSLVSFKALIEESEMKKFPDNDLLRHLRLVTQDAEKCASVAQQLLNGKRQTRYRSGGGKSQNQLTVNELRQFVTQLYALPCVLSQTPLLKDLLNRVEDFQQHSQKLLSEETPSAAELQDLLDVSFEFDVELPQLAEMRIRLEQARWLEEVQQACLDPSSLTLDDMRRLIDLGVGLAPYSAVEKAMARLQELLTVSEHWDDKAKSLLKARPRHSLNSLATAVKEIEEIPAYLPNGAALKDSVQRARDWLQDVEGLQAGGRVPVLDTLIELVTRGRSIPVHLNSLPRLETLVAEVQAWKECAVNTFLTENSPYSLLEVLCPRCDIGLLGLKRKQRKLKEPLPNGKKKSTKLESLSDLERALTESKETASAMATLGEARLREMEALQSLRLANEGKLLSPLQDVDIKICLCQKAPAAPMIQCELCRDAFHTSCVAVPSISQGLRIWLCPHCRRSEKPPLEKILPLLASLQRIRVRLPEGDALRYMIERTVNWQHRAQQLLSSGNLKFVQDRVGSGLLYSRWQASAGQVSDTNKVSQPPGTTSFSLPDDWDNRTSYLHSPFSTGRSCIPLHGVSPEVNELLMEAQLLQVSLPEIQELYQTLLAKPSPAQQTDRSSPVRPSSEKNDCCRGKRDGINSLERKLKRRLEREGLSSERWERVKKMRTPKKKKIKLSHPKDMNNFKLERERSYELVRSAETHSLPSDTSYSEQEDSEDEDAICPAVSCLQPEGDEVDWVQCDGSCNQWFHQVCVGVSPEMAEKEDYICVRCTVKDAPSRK

SMILES | Potency
COc1ccc(OC)c(CNC(=O)COc2ccc(NC(=O)C3CC3)cn2)c1 | inconclusive: 20 µM [inhibitor, single point]
O=Cc1cccc(-c2ccc(O)cc2)c1 | inconclusive: 89.1 µM [inhibitor, partial curve]
Cc1nc(N)c(S(=O)(=O)c2ccccc2)c(Nc2ccc(Br)cc2)n1 | inconclusive: 1 µM [inhibitor, partial curve, poor fit]
O=C(Nc1ccc(Cl)c(Cl)c1)c1n[nH]c(=O)c2ccccc12 | inactive
CC(C)c1nc(NCCCN(C)C)c(C#N)c2c1CCCC2 | inconclusive: 25.1 µM [inhibitor, partial curve, poor fit]
O=Cc1ccc(OCc2nnc(-c3ccccc3Br)o2)cc1 | inconclusive: 25.1 µM [inhibitor, partial curve, poor fit]
CC1CCN(c2nc(SCC(=O)N3CCOCC3)c(C#N)c3c2CCCC3)CC1 | inconclusive: 39.8 µM [inhibitor, single point]
COCCNc1cc(-c2ccnc(SC)n2)c2cc[nH]c2n1 | inconclusive: 25.1 µM [inhibitor, single point]
COc1ccc(C)cc1NC(=O)Cn1c(-c2ccc(F)cc2)nc(C)c(CCO)c1=O | inconclusive: 17.8 µM [inhibitor, partial curve]
CC(C)CCSCC(=O)NCc1cccc(CN2CCCC2)c1 | inconclusive: 10 µM [inhibitor, partial curve, poor fit]
COc1ccc(OC)c(/C=N/O)c1 | inconclusive: 28.2 µM [inhibitor, partial curve, poor fit]
Cc1ccccc1Nc1c(-c2ccc(O)cc2)nc2c(C)cccn12 | inconclusive: 35.5 µM [inhibitor, partial curve, poor fit]
CCC(C)(C)c1cc(O)c(C(C)(C)CC)cc1O | inconclusive: 14.1 µM [inhibitor, partial curve, poor fit]
COc1ccc(CN2C=C(C(=O)OCc3nc(-c4ccccc4F)no3)C(C)=NS2(=O)=O)cc1 | inconclusive: 17.8 µM [inhibitor, single point]
CCOC(=O)c1sc(NC(=O)c2cccc(S(=O)(=O)N3CCCCC3C)c2)cc1C (configuration not stated) | inconclusive: 39.8 µM [inhibitor, single point]
Cc1cccc(-n2nnnc2SCc2cc(=O)oc3cc(O)ccc23)c1 | inconclusive: 31.6 µM [inhibitor, single point]
Cc1cc(C(=O)N/N=C/c2ccncc2)c2ccccc2n1 | inconclusive: 31.6 µM [inhibitor, single point]

Reference: PubChem BioAssay AID1347165 (National Center for Advancing Translational Sciences (NCATS), 2019)
